# Source: the BET-seq Pho4 binding data (Le et al. 2018)
# Some of the results follow. These are noisy estimates, calculated here from bound and input reads.
# Biological target: T1, Pho4 (S. cerevisiae) (UniProt P07270)
# T1 sequence: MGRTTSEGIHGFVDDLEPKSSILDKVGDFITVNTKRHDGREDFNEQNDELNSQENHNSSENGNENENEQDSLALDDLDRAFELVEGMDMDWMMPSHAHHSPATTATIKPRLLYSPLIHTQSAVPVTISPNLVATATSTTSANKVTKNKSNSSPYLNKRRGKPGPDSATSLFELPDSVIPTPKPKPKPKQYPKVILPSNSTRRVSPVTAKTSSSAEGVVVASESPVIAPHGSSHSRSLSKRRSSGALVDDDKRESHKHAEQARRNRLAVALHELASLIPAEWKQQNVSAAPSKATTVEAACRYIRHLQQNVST
# Assay: relative binding free energy (BET-seq); higher = weaker binding
# Conditions: reference: library average
row,Sequence,relative binding free energy [kcal/mol]
1,TAAGACACGTGGGGTG,-0.1
2,GGTGTCACGTGCCGGG,0.03
3,TTGCGCACGTGTTTGA,-0.12
4,AAGTACACGTGATTTG,0.14
5,GGGGGCACGTGCGGGG,-0.14
6,GTGGGCACGTGAATGA,0.21
7,TGAGGCACGTGGCATG,-0.16
8,GAGTGCACGTGCTTTG,-0.04
9,ATGGCCACGTGTGAGG,0
10,ATGGACACGTGGTGAG,0.05
11,GCTTTCACGTGGGATG,0.25
12,CGGAGCACGTGGCAGG,-0.14
13,GTATTCACGTGATTCT,0.28
14,GTAGTCACGTGGGCTG,-0.06
15,ACGTGCACGTGGGGCT,-0.26
16,CTCGGCACGTGGTGTG,-0.16
17,TGGTGCACGTGATAAT,0
18,GTTTTCACGTGCTCGT,0.16
19,CGTGGCACGTGGTATC,-0.13
20,AAGGTCACGTGAAGGA,0.44
21,GGATACACGTGTCGGT,0.1
22,ACAAGCACGTGGGTGT,-0.2
23,TGGTACACGTGTTCAG,0.03
24,ATTCGCACGTGTATGG,-0.03
25,ATTGTCACGTGTCAAG,0.02

row,Sequence,relative binding free energy [kcal/mol]
1,CGGGTCACGTGGTTGA,0.13
2,GAGGGCACGTGGGTAA,-0.16
3,TAGGTCACGTGGTCAT,-0.05
4,CGTATCACGTGTAAGG,0.14
5,GAGTGCACGTGTGGAT,0.03
6,TGTTGCACGTGTTTGA,0.07
7,TGATGCACGTGATATG,0.15
8,TGTACCACGTGTGAGA,0.11
9,CAAGTCACGTGGGGGC,0.06
10,AACTGCACGTGGGTGT,-0.04
11,ATGTTCACGTGCTGAA,0.29
12,TGTGGCACGTGAAGTC,0.18
13,TGGCTCACGTGAGAGA,0.58
14,TGGCGCACGTGGGCTT,-0.29
15,TTCTTCACGTGGGCTA,0.2
16,GATGTCACGTGGAAAG,0.11
17,TATAGCACGTGTGACG,0.03
18,TAGTGCACGTGTCGTA,0.11
19,ATGGGCACGTGCGTTT,-0.09
20,CGTTTCACGTGGTTCG,0.28
21,GATGCCACGTGGTTGG,-0.1
22,TTGTCCACGTGGGGAG,-0.09
23,CGAGGCACGTGGTAGT,-0.13
24,TAGAGCACGTGAGGAT,0.12
25,AGTACCACGTGGGTGA,-0.28

row,Sequence,relative binding free energy [kcal/mol]
1,ATAGGCACGTGCTGTA,-0.28
2,TAGGCCACGTGTGGTT,-0.03
3,TCTGGCACGTGGTTTG,-0.2
4,GGGGTCACGTGCGTTT,0.19
5,TAGAGCACGTGAAGGG,0.08
6,TCCGTCACGTGGTATG,0.13
7,TGTGTCACGTGAATTA,0.29
8,GTTGTCACGTGGTTCA,0.06
9,ACGGTCACGTGGTCGG,-0.1
10,ATGTTCACGTGTCCGT,0.28
11,AAAAGCACGTGTAGGG,-0.03
12,GGGTACACGTGGATGC,0.15
13,CTGGCCACGTGTTGGT,-0.02
14,TCGTTCACGTGGGATT,0.16
15,GAAGACACGTGTTTGA,0.22
16,TTGTGCACGTGGCTAA,-0.18
17,GGTTTCACGTGGACGT,0.22
18,AGTGGCACGTGGGAGG,-0.24
19,TGAGGCACGTGTCGGG,0
20,TTGTACACGTGTGAAT,0.11
21,GTCGACACGTGGTGTT,-0.09
22,GGGGTCACGTGTCGTC,0.06
23,AGGCTCACGTGGTGTA,0.15
24,ATCTGCACGTGTGAGT,0.1
25,TTTTACACGTGGACTT,0.16

row,Sequence,relative binding free energy [kcal/mol]
1,GGGTACACGTGAGCGT,0.11
2,AGGGGCACGTGTCAGT,-0.11
3,GGGGTCACGTGACTTG,0.27
4,TATGTCACGTGTCTTT,0.03
5,TTTTTCACGTGCGAGG,0.26
6,GATGTCACGTGTTAAG,0.15
7,AAATTCACGTGAATGG,0.4
8,GAGGCCACGTGGGTGG,-0.07
9,GTGAACACGTGGGGCT,-0.12
10,TTATTCACGTGTCTCT,0.11
11,TAGGACACGTGAGGAG,0.27
12,TGCGGCACGTGCGCGG,-0.19
13,GTATTCACGTGAGATT,0.5
14,ATTTGCACGTGCTTAG,-0.03
15,TCAAGCACGTGGCGGG,-0.05
16,GAGGACACGTGGTTAT,-0.08
17,GGGGGCACGTGCTTAT,-0.02
18,ATAAGCACGTGTGTTG,-0.05
19,TCAAACACGTGGTGAG,0.22
20,TTAGTCACGTGGACTA,0.1
21,TGTAGCACGTGACGTA,0.02
22,GGTGGCACGTGATGGC,-0.03
23,TAGGTCACGTGTAAGA,0.15
24,CAAGTCACGTGTGGGC,0.31
25,TGGAACACGTGGGTGC,-0.25

row,Sequence,relative binding free energy [kcal/mol]
1,GAGTGCACGTGATCGG,0.15
2,GTGATCACGTGTTTTC,0.25
3,ATTGTCACGTGTAACG,0.09
4,GGCGTCACGTGGGAAG,0.06
5,AATTACACGTGTGTGG,0.05
6,CTGTTCACGTGGTACG,0.22
7,ATCGGCACGTGGTATT,-0.15
8,CTGGGCACGTGTGAAT,0.2
9,ATAATCACGTGGGGGT,0.03
10,TTGATCACGTGGTGAG,0.13
11,GTTTACACGTGTTCAT,0.09
12,GTAGTCACGTGTGGGA,0.06
13,CTTGTCACGTGAGCAG,0.29
14,TGCGTCACGTGGTGGA,0.05
15,GTGTCCACGTGGAGGC,0.01
16,AAGTTCACGTGATTTG,0.29
17,GTGATCACGTGGAGCG,0.23
18,CCGGGCACGTGGTTTG,-0.23
19,AGGGACACGTGGGAAT,-0.04
20,TAGCTCACGTGAGGGG,0.23
21,AGTGGCACGTGCGTAT,-0.17
22,TGTCGCACGTGTCGTG,-0.17
23,TTCGACACGTGTGTGA,0.17
24,TAGGTCACGTGGCTGG,-0.02
25,TGTTGCACGTGGGACA,-0.02

row,Sequence,relative binding free energy [kcal/mol]
1,TTTTGCACGTGTTGGA,0.16
2,CCGGGCACGTGGTTAG,-0.17
3,CGCTTCACGTGTGGTG,0.14
4,AGTATCACGTGGGAGG,0.05
5,TTTTACACGTGTAGGC,0.13
6,TGTTTCACGTGGCTTA,0.23
7,TCGCGCACGTGATGGT,0.05
8,GTTTCCACGTGCGGTT,0.15
9,ATTATCACGTGCAGGT,-0.01
10,GGGTGCACGTGGGCCG,-0.08
11,AGCTACACGTGGTGGT,0.03
12,TTAAACACGTGATATT,0.24
13,ATGTGCACGTGCTGAT,-0.13
14,GAGGGCACGTGGGCTA,-0.23
15,GGGGTCACGTGTTGCC,0.15
16,TGGTGCACGTGGGCTG,-0.17
17,TATGCCACGTGTGTGT,-0.14
18,GCTGTCACGTGAGATT,0.4
19,TGTGACACGTGGTTCT,-0.18
20,GGGGACACGTGGTCTT,0.04
21,ATGGACACGTGTAAGG,0.16
